Laboratory results published in the RNAGym collection of RNA variant scans (doi:10.1093/nar/gkz1192).
The source gives no read counts; variants with many changes may rest on few reads.

B1: CPEB3 Ribozyme (parent)
chain: UAACAGGGGGCCACAGCAGAAGCGUUCACGUCGCAGCCCCUGUCAGAUUCUGGUGAAUCUGCGAAUUCUGCUGUAUAUCUC

Variants of: B1
Assay: self-cleavage, relative activity (ratio to wild type); higher = more cleavage; in vitro, sequencing
How it was run: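 Relative activity compares each variant's cleaved/total read fraction with that of the unmutated ribozyme. To get these fractions, barcoded CPEB3 ribozyme libraries from rounds of error-prone PCR were transcribed with T7 RNA polymerase for 5 hours at 37°C and then given 15 min of DNase I treatment before EDTA was added. The RNAs were reverse transcribed with template switching and sequenced on Illumina, and DNA sequencing linked barcodes to variants. A minimum of 5 reads applied, and three batches were averaged.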
With UAACAGGGGGCCCCAGCAGAAGCGUUCACGUCGCAGCCCCUGUCAGAUUCCGGAGAAUUUGCGAAUUCUGCAGUAUAUCUC the self-cleavage was 0.34. For UAACAGGGGGCCCCAGCAGAAGCGUUCACGUCGCAGCCCCUGUCAGAUUCUGGAGAAUCUGCGAACUCUGCUGUAUAUCUC, the self-cleavage was 0.37. UAACAGGGGGCCCCAGCAGAAGCGUUCACGUCGCAGCCCCUGUCAGAUUCUGGAGAAUCUGCGAAUUCUGCUGUACAUCUC gave a self-cleavage of 0.92. Variant UAACAGGGGGCCCCAGCAGAAGCGUUCACGUCGCAGCCCCUGUCAGAUUCUGGGGAAUCUGCGUAUUCUGCUGUAUAUCUC has a self-cleavage of 0.21. For UAACAGGGGGCCCCAGCAGAAGCGUUCACGUCGCAGCCCCUGUCAGAUUCUGGUGAAUCCGCGAACUCUGCUGUAUAUCUC, the self-cleavage was 0.21. UAACAGGGGGCCCCAGCAGAAGCGUUCACGUCGCAGCCCCUGUCAGAUUCUGGUGAAUCGGCGAAUUACGCUGUAUAUCUC showed a self-cleavage of 0.1. Variant UAACAGGGGGCCCCAGCAGAAGCGUUCACGUCGCAGCCCCUGUCAGAUUCUGGUGAAUCUGCGAACUCUGCCGUAUAUCUC has a self-cleavage of 0.22. In the case of UAACAGGGGGCCCCAGCAGAAGCGUUCACGUCGCAGCCCCUGUCAGAUUCUGGUGAAUCUGCGAAUCCUGCUGAAUAUCUC, the self-cleavage is reported as 0.16. UAACAGGGGGCCCCAGCAGAAGCGUUCACGUCGCAGCCCCUGUCAGAUUCUGGUGAAUCUGCGAAUUCUGCUGCAUGUCUC showed a self-cleavage of 1.18. Work on UAACAGGGGGCCGCCGCAGAAGCGUUCACGUCGCAGCCCCUGUCAGGUUCCGGUGAAUCUGCGAAUCCUGCCGUAUACCUC yielded a self-cleavage of 0.33. Work on UAACAGGGGGCCGCCGCAGAAGCGUUCACGUCGCAGCCCCUGUCAGAUUCUGGUGGAUCUGCUGAUUCUGCUGUAUAUCUC yielded a self-cleavage of 0.41. For UAACAGGGGGCCGCCGCAGAAGCGUUCACGUCGCAGCCCCUGUCAGAUUCUGGUGAAUCUGCGAAUUCUGAUGUGUAUCUC, the self-cleavage was 0.12. With UAACAGGGGGCCGCCGCAGAAGCGUUCACGUCGCAGCCCCUGACAGAUUCCGGUGAAUCUGCGAGUUCUGCUGUAUAUCCC the self-cleavage was 0.28. UAACAGGGGGCCGCCGCAGAAGCGUUCACGUCGCAGCCCCUGUCAGAUUCUGGCGAAUCUGCGAGUUCUGCUGUAUAUCUC showed a self-cleavage of 0.15. UAACAGGGGGCCGCCGCAGAAGCGUUCACGUCGCAGCCCCUGUCAGAUUCUGGUGAAUCCGCGAAUUCAGCUGUAUAUCUC showed a self-cleavage of 0.4. Variant UAACAGGGGGCCGCGGCGGAAGCGUUCACGUCGCAGCCCCUGUCAGAUUCUGGUGAAUCUGCGAAUUCUGCUGUAUAUCCC has a self-cleavage of 0.08. UAACAGGGGGCCGCGGCAGUAGCGUCCACGUCGCAGCCCCUGUCAGAUUAUGGUGAAUCUGCGAAUUCUGCUGUAUAUUUC gave a self-cleavage of 0.4. Work on UAACAGGGGGCCGCGGCAGUAGCGUUCACGUCGCAGCCCCUGUCAGAUUCUGGAGAAUCUGCGAAUUCUGCUGUAUAUCUC yielded a self-cleavage of 0.35. Variant UAACAGGGGGCCGCGGCAGAAGCGUUCGCGUUGCAGCCCCUGUCAGACUCUGGUGAAUCUGCGAAUUCUGCUGUAUAUCUC has a self-cleavage of 0.12. UAACAGGGGGCCGCGGCAGAAGCGUUCGCGUCGCAGCCCCUGUCAGAUUCUGGUGAAUCUGCGAAUUCAGCCGUAUAUCUC showed a self-cleavage of 0.42. Variant UAACAGGGGGCCGCGGCAGAAGCGUUCACGUCGCGGCCCCCGUCAGAUUCUGGUGAAUCUGCGAAUUCUGCUGUAUAUCUC has a self-cleavage of 0.48. With UAACAGGGGGCCGCGGCAGAAGCGUUCACGUCGCUGCCCCCGUCUGAUUCUGGUGAAUCUGCGAAUUCUGCUGUAUAUCUC the self-cleavage was 0.38. UAACAGGGGGCCGCGGCAGAAGCGUUCACGUCGCAGCCCCUGUCGGAUUCUGGUGAAUCUGCGAAUUCCGCUGUAUAUCUC showed a self-cleavage of 0.11. Variant UAACAGGGGGCCGCGGCAGAAGCGUUCACGUCGCAGCCCCUGUCUGGUUCUGGUGAAUCAGCGAAUUCUGCUGUAUAUCUC has a self-cleavage of 0.16. Work on UAACAGGGGGCCGCGGCAGAAGCGUUCACGUCGCAGCCCCUGUCAGAUUCUGGUGAUUCUGCGAAUUCUGCUGUAUAUCUC yielded a self-cleavage of 0.17. With UAACAGGGGGCCGCGGCAGAAGCGUUCACGUCGCAGCCCCUGUCAGAUUCUGGUGAAUCUGCGGAUUCUGCUGUAUAUCUC the self-cleavage was 0.26. With UAACAGGGGGCCGCGGCAGAAGCGUUCACGUCGCAGCCCCUGUCAGAUUCUGGUGAAUCUGCGAGUUCUGCUGAAUAUCUC the self-cleavage was 0.31. Variant UAACAGGGGGCCGCGGCAGAAGUGUUCACGUCGCAGCCCCUGUCAGAUUCUGGUGAAUCUGCGAAUUCUGCUGUAUAUCUC has a self-cleavage of 0.31. Work on UAACAGGGGGCCGCGGCAGAAGCGUUCAUGUCGCAGCCCCUGUCAGAUUCUGGUGAAUCUGCGAAUUCUGCUGCAUAUCUC yielded a self-cleavage of 0.24. For UAACAGGGGGCCGCGGCAGAAGCGUUCACGUUGCAGCCCCCGUCUGAUUCUGGUGAAUCUGCGAAUUCUGCUGUUUAUCUC, the self-cleavage was 0.05. In the case of UAACAGGGGGCCGCGGCAGAAGCGUUCACGUCGUAGCCCCUGUCAGAUUCUGGUGAAUCUGCGAAUUCUGCUGUAUAUCUC, the self-cleavage is reported as 0.27. With UAACAGGGGGCCGCGGCAGAAGCGUUCACGUCGCAGCCCUUGUCAGAUUCUGGUGAGUCUGCGAAUUCUGCUGUAUACCCC the self-cleavage was 0.29. For UAACAGGGGGCCGCGGCAGAAGCGUUCACGUCGCAGCCCUUGUCAGAUUCUGGUGAAUCUGCGAAUCCUGCUGUAUAUCUC, the self-cleavage was 0.14. UAACAGGGGGCCGCGGCAGAAGCACUCACGUCGCAGCCCCCGUCAGAUUCUGGUGAAUCUGCGAAUUCUGCUGUAUAUCUC showed a self-cleavage of 0.43. In the case of UAACAGGGGGCCGCGGCAGAAGCGUUCACAUCGCAGCCCCUGUCAGAUUCUGGUGAAUCUGCGAAUUCCGCUGUAUAUCUC, the self-cleavage is reported as 0.22. UAACAGGGGGCCGCGGCAGAAGCGAUCACGUCGCAGCCCCUGUCAGAUUCUGGUGAAUCCGCGAAUUCUGCAGUAUAUCUC showed a self-cleavage of 0.08. With UAACAGGGGGCCGCGGCAGAAGCGCUCACGUCGCAGCCCCUGUCAGAUUCUGGUGAAUCUGCGAAUUCUGCUGUAUACCUC the self-cleavage was 0.09. Variant UAACAGGGGGCCGCGGCAGAAGCGUCCACGUCGCAGCCCCUGUCAGAUUCUGGUGAAUCAGCGAAUUCUGCUGUAUAACUC has a self-cleavage of 0.43. UAACAGGGGGCCGCGGCAGAAGCGUCCACGUCGCAGCCCCUGUCAGAUUCUGGUGAAUCUGCGAAUUCGGCUGUAUAUCUC showed a self-cleavage of 0.17. Variant UAACAGGGGGCCGCGGCAGAAGCGUUCACGACGCAGCCCCUGUCAGAUUCUGGUGAAUCUGCGAAUUCUGCUGUAUAUCUC has a self-cleavage of 0.33. UAACAGGGGGCCGCGGCAGAAGCGUUCACGCCGCAGCCCCUGUCAGAUUCUGGUGAACCUGCGAUUUCUGCCGUAUAUCUC showed a self-cleavage of 0.1. In the case of UAACAGGGGGCCGCGGCAGAAGCGUUCACGUCGCAGCCCCCGUCUGAUUCUGGUGAAUCUGCGAAUUCUGCUGUAUAUCUC, the self-cleavage is reported as 0.09. UAACAGGGGGCCGCGGCAGAAGCGUUCACGUCGCAGCCCCCGUCAGAAUCUGGUGAAUCUGCGAAUUGUGCUGUGUACCUC gave a self-cleavage of 0.03. For UAACAGGGGGCCGCGGCAGAAGCGUUCACGUCGCAGCCCCUGGCAGAUUCUGGUGAAUCUGCGAAUUCUGCUGUAUGUCUC, the self-cleavage was 0.28. Variant UAACAGGGGGCCGCGGCAGAAGCGUUCACGUCGCAGCCCCUGUCAGAUACUGGUGAAUCCGCGAAUCCUGCUGUACAUCUC has a self-cleavage of 0.03. In the case of UAACAGGGGGCCGCGGCAGAAGCGUUCACGUCGCAGCCCCUGUCAGAUCCUGGUGAAUCUGCGUAUUCUGCUGUAUAUCUC, the self-cleavage is reported as 0.12. In the case of UAACAGGGGGCCGCGGCAGAAGCGUUCACGUCGCAGCCCCUGUCAGAUUCAGGUGAAUCCGCGAAUUCUGCUGUAUAUCUC, the self-cleavage is reported as 0.16. Variant UAACAGGGGGCCGCGGCAGAAGCGUUCACGUCGCAGCCCCUGUCAGAUUCUGGUGAAUCAGCGAAUUCUGCUGUAUAUCUC has a self-cleavage of 0.09. UAACAGGGGGCCGCGGCAGAAGCGUUCACGUCGCAGCCCCUGUCAGAUUCUGGUGAAUCAGCGAACUCUGCUGUAUAUCCA showed a self-cleavage of 0.14. Work on UAACAGGGGGCCGCGGCAGAAGCGUUCACGUCGCAGCCCCUGUCAGAUUCUGGUGAAUCUGCGAAUCGUGCUGUAUAUCUC yielded a self-cleavage of 0.09. UAACAGGGGGCCGCGGCAGAAGCGUUCACGUCGCAGCCCCUGUCAGAUUCUGGUGAAUCUGCGAAUUCUGCCGUAUACCUC gave a self-cleavage of 0.99. With UAACAGGGGGCCGCGGCAGAAGCGUUCACGUCGCAGCCCCUGUCAGAUUCUGGUGAAUCUGCGAAUUCUGCUGCAUAUCUC the self-cleavage was 0.34. Work on UAACAGGGGGCCGCUGCGGAAGCGUUCACGUCGUAGCCCCUGUCAGUUUCUGGUGUAUCUGCGAAUUCUGCUGUAUAUCUC yielded a self-cleavage of 0.22. With UAACAGGGGGCCGCUGCGGAAGCGUCCACGUCGCAGCCCCUGUCAGAUUCUCGUGAAUCUGCGUUUUCUGCUGUAUAUCUC the self-cleavage was 0.05. With UAACAGGGGGCCGCUGCAGGAGCGUUCACGUCGCAGCCCCUGUCAGAUUCUGGUGAAUCUGCGAAUUCUGCUGUAUAUCUC the self-cleavage was 0.42. Work on UAACAGGGGGCCGCUGCAGGAGCGCUCACGUCGCAGCCCCUGUCACAUUCUGGUGAAUCUGCGUAUUCUGCUGUAUAUCUC yielded a self-cleavage of 0.06. UAACAGGGGGCCGCUGCAGUAGCGUUCGCGUCGCAGCCCCUGUCAGAUUCUGGUGAAUCUGCGAAUUCUGCCGUAUAUCUC gave a self-cleavage of 0.07. UAACAGGGGGCCGCUGCAGACGCGUUCACGUCGCUGCCCCUGUCAGAUUCUGGUGAAUCUGCGAAUUCGGCUGUAUAUCUC showed a self-cleavage of 0.06. With UAACAGGGGGCCGCUGCAGAAGCGUUCGCGUCGCAGCCCCUGUCAGAUUCUGGUGUAUCUGCGAAUUCUGCUGCAUAUCUC the self-cleavage was 0.05. In the case of UAACAGGGGGCCGCUGCAGAAGCGUUCACGUCGCGGCCCCUGUCAGAUUCUGGUGAAUCUGCGAAUUCUGCUGUAUAUCUC, the self-cleavage is reported as 0.25. Work on UAACAGGGGGCCGCUGCAGAAGCGUUCACGUCGCGGCCCCUGUCAGAUACUGGUGAAUCUGCGAAUUCCGCUGCAUAUCUC yielded a self-cleavage of 0.07. Variant UAACAGGGGGCCGCUGCAGAAGCGUUCACGUCGCGGCCCCUGUCAGAUUCUGGUGAAUCUGCGAAUUCUGCCGUAUAUCUC has a self-cleavage of 0.99. Variant UAACAGGGGGCCGCUGCAGAAGCGUUCACGUCGCAGCCCCUGUCAGAUUCUGGUGUAUCUGCGAAUUCUGCUGCAUAUCUC has a self-cleavage of 0.2. For UAACAGGGGGCCGCUGCAGAAGCGUUCACGUCGCAGCCCCUGUCAGAUUCUGGUGAAUCUGCGAGUCCUGCUGUAUGUCGC, the self-cleavage was 0.07. In the case of UAACAGGGGGCCGCUGCAGAAGCGUUCACGUCGCAGCACCUUUCAGAUUCUGGUGAAUCUGCGAAUUCUGCUGUAUAUCUC, the self-cleavage is reported as 0.24. In the case of UAACAGGGGGCCGCUGCAGAAGCGUUCACGUCGCAGCCUCUGUCCGAUUCUGGUGAAUCUGCGAAGCCUGCUGUAUAUCUC, the self-cleavage is reported as 0.23. For UAACAGGGGGCCGCUGCAGAAGCGUUCACGUCGCAGCCCAUGACAGAUUCUGGUGAAUCUGCGAAUUCUGCUGUAUAUCUC, the self-cleavage was 0.13. Variant UAACAGGGGGCCGCUGCAGAAGCGUUCACGUCGCAGCCCUUGUAAGAUUCUGGUGAAUCUGCGAAUUCUGCUGUUUAUCUC has a self-cleavage of 0.07.
